From paper PMC4336329 (PLoS ONE, 2015)
Out of some 310,000 compounds screened, about 2,200 (0.71%) showed an effect of 50% or more. The effect is printed as a negative number. The list shows a part of the results.

biological target: human ether-à-go-go-related gene (hERG) potassium channel (human, UniProt Q12809); test: primary screen, population patch clamp on CHO cells stably expressing hERG
Sequence (Q12809 whole entry, looked up): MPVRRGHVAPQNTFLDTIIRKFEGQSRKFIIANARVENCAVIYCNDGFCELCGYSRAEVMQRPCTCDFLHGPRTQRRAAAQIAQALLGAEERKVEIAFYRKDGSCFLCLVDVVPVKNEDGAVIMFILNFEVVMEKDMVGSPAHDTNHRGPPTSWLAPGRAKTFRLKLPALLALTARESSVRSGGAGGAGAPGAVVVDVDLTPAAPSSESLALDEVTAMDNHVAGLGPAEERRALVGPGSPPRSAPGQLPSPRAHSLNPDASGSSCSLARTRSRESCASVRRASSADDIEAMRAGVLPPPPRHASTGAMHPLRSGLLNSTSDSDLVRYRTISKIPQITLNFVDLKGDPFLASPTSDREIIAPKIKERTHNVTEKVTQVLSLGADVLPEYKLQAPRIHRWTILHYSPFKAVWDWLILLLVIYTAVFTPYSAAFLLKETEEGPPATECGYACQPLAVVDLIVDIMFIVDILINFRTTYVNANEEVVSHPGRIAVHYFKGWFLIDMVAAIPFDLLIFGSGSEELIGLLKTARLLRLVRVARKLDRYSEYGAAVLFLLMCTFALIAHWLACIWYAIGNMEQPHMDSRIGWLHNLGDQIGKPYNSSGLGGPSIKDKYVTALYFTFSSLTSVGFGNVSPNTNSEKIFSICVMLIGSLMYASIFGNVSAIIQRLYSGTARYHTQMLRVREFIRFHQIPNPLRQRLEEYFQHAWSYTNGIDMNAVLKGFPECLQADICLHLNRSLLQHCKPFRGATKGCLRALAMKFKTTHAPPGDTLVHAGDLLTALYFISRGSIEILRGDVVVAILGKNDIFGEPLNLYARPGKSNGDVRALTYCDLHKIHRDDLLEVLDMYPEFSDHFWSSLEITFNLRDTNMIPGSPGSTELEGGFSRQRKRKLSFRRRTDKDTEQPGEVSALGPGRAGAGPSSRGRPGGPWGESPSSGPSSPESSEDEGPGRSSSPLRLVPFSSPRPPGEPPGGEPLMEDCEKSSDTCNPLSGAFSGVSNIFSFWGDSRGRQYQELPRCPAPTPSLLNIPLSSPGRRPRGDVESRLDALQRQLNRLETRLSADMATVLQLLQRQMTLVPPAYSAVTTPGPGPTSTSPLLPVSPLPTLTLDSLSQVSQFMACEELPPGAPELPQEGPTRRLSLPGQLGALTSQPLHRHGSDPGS

Structure (SMILES) | hERG current change (%, negative = inhibition) at 1uM [%]
CC(=O)c1noc(C)c1C(=O)Nc1nccs1 | 11.6
N#CCSc1ncnc2ccccc12 | 14.4
COc1ccccc1NS(=O)(=O)c1cc(C)ccc1C | 6.07
Cc1nnc(N2C(=O)C(=O)/C(=C(\O)c3ccc4c(c3)CC(C)O4)C2c2ccccc2)s1 (stereo not drawn) | 11.7
CCOC(=O)c1c(C)[nH]c(C)c1S(=O)(=O)NC(CC)CN1CCOCC1 (stereo not drawn) | 14.6
CC(=O)NC(CCS(C)(=O)=O)C(=O)Nc1ccc(F)cc1Cl (stereo not drawn) | 14.5
S=C(NCc1ccccn1)Nc1ccc(Cl)cc1Cl | 2.25
Cc1c(C(=O)Nc2ccc(Cc3ccncc3)cc2)cccc1[N+](=O)[O-] | 8.65
O=C(CCNC(=O)C1CCN(S(=O)(=O)c2ccccc2)CC1)NCc1ccccc1Cl | 4.81
CCNc1nc(NCC)nc(N/N=C/c2ccc([N+](=O)[O-])o2)n1 | -30.2
Cc1ccc(C)c(NC(=O)CSc2nnc(-c3ccccc3C)o2)c1 | 10.7
COc1ccccc1C1CC(c2ccc(C)cc2)Nc2ncnn21 (stereo not drawn) | 3.82
Cc1cc(/C=C2\SC(=S)NC2=O)c(C)n1C1CC1 | 4.92
CCOC(=O)c1nn(-c2ccc(F)cc2)cc1O | 11.4
COc1ccc(-c2cc(C(=O)Nc3c(C)n(C)n(-c4ccccc4)c3=O)c3ccccc3n2)cc1 | 22.5
Cc1c(C)c(C)c(CN2CCCC2)c(C)c1C | 0.687
Fc1ccc(N/N=C2/CC(c3ccccc3)Oc3ccccc32)c(F)c1 (stereo not drawn) | 11.6
O=C(c1ccccc1)C1C(c2ccccc2)C1[N+](=O)[O-] (stereo not drawn) | 6.68
COc1ccc(N(C(=O)c2snc(C(N)=O)c2N)C(C(=O)NCc2ccc(F)cc2)c2ccc(C)o2)c(OC)c1 (stereo not drawn) | 10.8
CSc1cccc(NC(=O)c2ccccn2)c1 | 16.5
O=C(COc1ccc(Br)cc1)NNC(=O)c1ccc(-n2cncn2)c([N+](=O)[O-])c1 | 5.16
COc1ccc(NC(=O)C(c2ccc(Cl)cc2)C(C)C)cn1 (stereo not drawn) | 3.23
CC(=O)c1ccc(S(=O)c2ccccc2)cc1 (stereo not drawn) | 6.16

Structure (SMILES) | hERG current change (%, negative = inhibition) at 1uM [%]
COc1cccc(C(=O)COC(=O)CCC(=O)c2ccccc2)c1 | 12.9
CCc1nc2ccccc2c(=O)n1NC(=O)c1c(O)c2ccccc2n(CC)c1=O | 7.06
CCOC(=O)C1CCCN(C(=O)c2cn(-c3ccccc3)nc2-c2cccnc2)C1 (stereo not drawn) | 13.6
Cc1cc(C(=O)NCC(c2cccs2)N2CCOCC2)ccc1[N+](=O)[O-] (stereo not drawn) | 8.36
CC(C)(C)c1cc2nc3c(c(=O)n2[nH]1)CN(Cc1ccccc1)C3=O | 11.4
Brc1c(-c2ccc3c(c2)OCO3)nc2ncccn12 | 10.5
COC(=O)c1ccc(C2OCC(C)(C)CO2)cc1 | 1.61
COC(=O)c1c(N=CN(C)C)c(C#N)c2n1CCCC2 | -4.91
COc1cc(C(C)=O)ccc1OCC(O)CN(CCO)Cc1ccccc1 (stereo not drawn) | 2.46
COC(=O)c1c(C)n(Cc2ccccc2)c2ccc(O)cc12 | 15.9
Cc1cc(C)c(S(=O)(=O)Nc2ccc(-c3cn4ccccc4n3)cc2)c(C)c1 | 8.41
CS(=O)(=O)N1CCCC(C(=O)Nc2c(F)cccc2F)C1 (stereo not drawn) | 16
Cc1cc(C(C)(C)C)oc1C(=O)N(CC(=O)NC1CCCC1)Cc1ccccc1Cl | 9.01
O=C1NC(c2cccnc2)Nc2sc3c(c21)CCCC3 (stereo not drawn) | 12.7
O=C(Cn1cnc2sc(-c3ccccc3)cc2c1=O)NCCc1ccccc1 | 7.55
COc1ccc(NC(=O)COC(C)=O)cc1Cl | 9.3
COCC(C)n1c(C)cc(C(=O)COc2ccc(C)nc2[N+](=O)[O-])c1C (stereo not drawn) | 21.3
N#Cc1c(-c2cccs2)cc(-c2cccnc2)nc1N | 8.57
O=C(CCS(=O)(=O)c1cc2c(cc1Cl)NC(=O)CO2)NCc1ccccc1 | 8.93
CNc1nc(-c2ccccc2)cc(C)c1S(C)(=O)=O | -6.46
CC(=O)Nc1ccc(NC(=O)C(C)Oc2ccccc2F)cc1 (stereo not drawn) | 13.3
Clc1cccc(CSc2nnc(-c3c[nH]c4ccccc34)o2)c1 | 12.2
